From publication PMC4336329 (PLoS ONE, 2015)
Screen size: about 310,000 compounds; about 2,200 (0.71%) showed an effect of 50% or more. Effects have a minus sign here. This is one part of the list.

Molecular target: human ether-à-go-go-related gene (hERG) potassium channel (human, UniProt Q12809)
Test: primary screen, population patch clamp on CHO cells stably expressing hERG

Chain of human ether-à-go-go-related gene (hERG) potassium channel (Q12809 whole entry, looked up): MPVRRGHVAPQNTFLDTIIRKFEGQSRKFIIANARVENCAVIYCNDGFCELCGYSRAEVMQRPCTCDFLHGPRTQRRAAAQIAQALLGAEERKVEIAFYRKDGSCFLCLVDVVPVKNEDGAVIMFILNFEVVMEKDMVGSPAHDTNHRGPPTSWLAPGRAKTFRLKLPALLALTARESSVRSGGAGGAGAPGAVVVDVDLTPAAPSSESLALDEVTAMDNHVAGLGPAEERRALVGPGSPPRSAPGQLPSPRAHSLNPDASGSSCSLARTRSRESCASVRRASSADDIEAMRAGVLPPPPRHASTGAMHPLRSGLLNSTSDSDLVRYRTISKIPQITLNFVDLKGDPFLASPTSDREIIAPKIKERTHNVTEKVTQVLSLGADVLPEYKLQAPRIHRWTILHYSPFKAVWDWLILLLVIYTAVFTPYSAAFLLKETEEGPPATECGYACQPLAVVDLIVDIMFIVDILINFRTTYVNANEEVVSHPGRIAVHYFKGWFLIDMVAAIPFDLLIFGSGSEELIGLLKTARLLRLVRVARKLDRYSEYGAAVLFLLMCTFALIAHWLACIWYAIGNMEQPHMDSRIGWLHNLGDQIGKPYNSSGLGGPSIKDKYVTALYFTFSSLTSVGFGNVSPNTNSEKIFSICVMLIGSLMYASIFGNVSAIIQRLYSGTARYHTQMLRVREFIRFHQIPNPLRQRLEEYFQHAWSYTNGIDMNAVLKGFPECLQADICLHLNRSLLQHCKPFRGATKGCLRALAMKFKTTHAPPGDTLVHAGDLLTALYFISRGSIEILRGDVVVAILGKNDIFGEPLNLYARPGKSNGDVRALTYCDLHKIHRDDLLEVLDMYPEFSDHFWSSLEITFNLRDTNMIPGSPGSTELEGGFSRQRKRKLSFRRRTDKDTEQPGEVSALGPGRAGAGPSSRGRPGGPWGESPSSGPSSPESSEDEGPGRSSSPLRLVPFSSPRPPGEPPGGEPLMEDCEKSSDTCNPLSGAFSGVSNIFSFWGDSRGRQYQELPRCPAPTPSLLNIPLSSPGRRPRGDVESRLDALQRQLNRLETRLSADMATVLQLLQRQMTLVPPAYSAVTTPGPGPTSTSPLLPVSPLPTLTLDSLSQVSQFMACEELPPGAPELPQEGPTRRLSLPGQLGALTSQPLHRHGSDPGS

| Structure (SMILES) | hERG current change (%, negative = inhibition) at 1uM |
| --- | --- |
| CC1(NC(=O)c2cccc(S(=O)(=O)N3CCN(c4ccc(F)cc4)CC3)c2)CCS(=O)(=O)C1 (centres unmarked) | 9.97% |
| C/C(=N/NC(=O)c1ccncc1)C1=C(O)CC(C)(C)CC1=O | 13.7% |
| Cc1ccc(S(=O)(=O)/C(C#N)=C/c2c(N3CCN(C)CC3)nc3c(C)cccn3c2=O)cc1 | -4.1% |
| COc1cccc(OC)c1C(=O)Nc1cccc(C(=O)Nc2cccc(C(=O)O)c2)c1 | 17.8% |
| Nc1nc(COC(=O)C2CCN(C(=O)c3ccc(Cl)cc3)CC2)nc(Nc2ccccc2)n1 | -12.2% |
| Cc1ccc(S(=O)(=O)N2[C@@H](c3cccc(Cl)c3)C(C(=O)O)=CC[C@H]2c2ccc(Cl)c(Cl)c2)cc1 | 15% |
| Cc1sc2ncnc(SCC(=O)NCC(C)C)c2c1C | 0.602% |
| O=C(O)CCc1nc(-c2ccccc2Cl)no1 | 15.8% |
| COc1ccc(CC(=O)OCC(=O)NC(=O)NC2CCCCC2)cc1 | 7.43% |
| COC1(NS(=O)(=O)c2ccc(Br)cc2)C(C)=CC(=O)C=C1C | 23.2% |
| N#Cc1ccc(CN2CCN(C(=O)CCNS(=O)(=O)c3ccc(F)c(Cl)c3)CC2)cc1 | -29.3% |
| COc1ccc(Nc2ccccc2NC(=O)c2ccccc2Br)cc1 | 5.55% |
| CCn1c2ccccc2c2nnc(SCC(=O)NCc3cccs3)nc21 | 13% |
| CC(c1ccccc1)N(C)C(=O)CN1CCN(S(=O)(=O)c2ccc3c(c2)OCCCO3)CC1 (centres unmarked) | 10.3% |
| Cc1ccsc1C(=O)OCC(=O)N1CCc2ccccc2C1 | 2.31% |
| O=C(NCCC1=CCCCC1)c1cc2c(s1)CS(=O)(=O)C2 | 1.51% |
| CC(=O)c1cc(F)ccc1OCC(=O)N1CCCc2ccccc21 | 10.8% |
| Cc1cc(C)c2nc(NNC(=O)c3ccc(S(=O)(=O)N4CCCC(C)C4)cc3)sc2c1 (centres unmarked) | 9.1% |
| COc1cc(C(=O)NC(=S)Nc2cccc(-c3cc4ccccc4oc3=O)c2)cc(OC)c1OC | 7.7% |
| CC(CCN1CCN=C1Nc1ccccc1)c1ccccc1 (centres unmarked) | -1.71% |
| CCN(CCCNC(=O)CCCN1C(=O)COc2ccc(C)cc21)c1cccc(C)c1 | 2.11% |
| CCS(=O)(=O)c1ccc(OC)c(N=Nc2ccc(O)c3ncccc23)c1 | 9.51% |

| Structure (SMILES) | hERG current change (%, negative = inhibition) at 1uM |
| --- | --- |
| COc1ccc(C)cc1S(=O)(=O)Nc1ccc(F)cc1 | 9.23% |
| Clc1ccc(Cn2ncc3c(N4CCCC4)ncnc32)cc1 | -6.47% |
| COc1ccc(C(=O)NC2c3ccccc3-c3ccccc32)cc1 | 23.6% |
| Cc1ccnc(SCC(=O)N2CCc3ccccc3C2)n1 | 10.3% |
| Cc1ccc(N2CCN(C(=O)CN3C(=O)c4ccccc4C3=O)CC2)cc1 | -1.58% |
| CCN(CC)CCCN=C1N[C@@H](c2ccccc2)C(C(=O)OC)=C(C)N1CC | 14.7% |
| COc1cc2[nH]c(C(=O)N3CCN(C)CC3)cc2c(OC)c1OC | 6.2% |
| CC(=O)Oc1ccc2c(c1)Oc1cc(OC(C)=O)ccc1C21OC(=O)c2ccccc21 | 9.29% |
| COc1cc(C)c(NC(=O)Cc2ccsc2)cc1OC | 23.1% |
| CC(=O)NC(Cc1ccccc1)C(=O)NC1CCN(C(=O)c2cnccn2)CC1 (centres unmarked) | 2.78% |
| CN1CCN(CCNC(=O)c2cn(Cc3ccccc3F)nn2)CC1 | 7.06% |
| CCOc1ccc(/C=N/N2C(C)CCCC2C)cc1 (centres unmarked) | 12% |
| Cc1ccc2nc(SC(C)C(=O)N3CCCC3)[nH]c2c1 (centres unmarked) | 17.3% |
| CCOC(=O)N1CCN(C(=O)c2ccc3c(=O)n(Cc4ccc(OC)cc4)c(=S)[nH]c3c2)CC1 | 4.27% |
| O=C(O)c1cccc(S(=O)(=O)N2CCC(Cc3ccccc3)CC2)c1 | 15% |
| C=CCc1c(O)c(CC)cc2c(C)cc(=O)oc12 | 13.6% |
| COc1ccc(CC2CC(=O)N(c3ccc(C)cc3)C2=O)cc1 (centres unmarked) | 16% |
| COc1cc(OC)c(OC)cc1CN1CCN(Cc2ccc(C(F)(F)F)cc2)CC1 | 3.19% |
| CCn1c(SCC(=O)NC2CCCCC2)nnc1-c1ccccn1 | 5.2% |
| CCOC(=O)C1=C(CN2CCSCC2)NC(=O)NC1c1ccc2c(c1)OCO2 (centres unmarked) | -3.44% |
| Nc1cnc(Br)cc1Br | 6.15% |
| CCS(=O)(=O)N1Cc2ccccc2CC1C(=O)Nc1ccccc1OC (centres unmarked) | 9.91% |
